PubChem BioAssay AID1745853 (National Center for Advancing Translational Sciences (NCATS), 2022)
Values joined by “and” are separate entries in the source; they are usually repeats but may differ in a detail not shown here. Equal entries are not always repeated. Some of the results follow. These are further read-outs of the screen, such as a control signal, another cell line or another target. No call is given for them.

Assays:
Experiment in all cases: Primary Screen for Target Class Profiling of Small Molecule Inhibitors of Methyltransferases
[1] = target: Glycine N-methyltransferase (Homo sapiens) (UniProt Q14749); details: purified enzyme, MTase-Glo SAH luminescence; measured here: GNMT inhibition; at 40 µM; stronger effect = lower value
Outline: (§1)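 Each enzyme was assayed with SAM and its substrate. SAH formation detected by MTase-Glo luminescence; single-point 40 uM screen[…].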

[2] = target: Guanidinoacetate N-methyltransferase (Homo sapiens) (UniProt Q14353); details: purified enzyme, MTase-Glo SAH luminescence; measured here: GAMT inhibition; at 40 µM; stronger effect = lower value
Outline: as §1

[3] = target: Histamine N-methyltransferase (Homo sapiens) (UniProt P50135); details: purified enzyme, MTase-Glo SAH luminescence; measured here: HNMT inhibition; at 40 µM; stronger effect = lower value
Outline: as §1

[4] = target: Nicotinamide N-methyltransferase (Homo sapiens) (UniProt P40261); details: purified enzyme, MTase-Glo SAH luminescence; measured here: NNMT inhibition; at 40 µM; stronger effect = lower value
Outline: as §1

[5] = target: Phenylethanolamine N-methyltransferase (Homo sapiens) (UniProt P11086); details: purified enzyme, MTase-Glo SAH luminescence; measured here: PNMT inhibition; at 40 µM; stronger effect = lower value
Outline: as §1
On the % scale 0 is the no-effect control and ±100 the full control effect.

Row | SMILES | activity change, negative = inhibition [1] [%] | activity change, negative = inhibition [2] | activity change, negative = inhibition [3] [%] | activity change, negative = inhibition [4] | activity change, negative = inhibition [5]
1 | O=C(CCc1nnc2n(Cc3ccccc3Cl)c(=O)c3ccccc3n12)NC1CCCCC1 | 1.15 | 4.42% | 8.03 | 6.77% | 0.27%
2 | COc1ccc(NC(=O)N[C@H]2CO[C@H]3[C@@H]2OC[C@@H]3n2nnnc2-c2ccccc2)cc1 | -5.86 | -3.1% | -1.8 | -6.66% | -0.946%
3 | Cc1noc(C)c1CN1CCN(C(=O)C2CCCN2)CC1 (stereo not given) | -6.87 | -11.2% | -6 | -16.9% | -15.9%
4 | COC(=O)[C@H](Cc1cccc(C(=N)N)c1)[C@@H](C)NC(=O)c1ccc(-c2cc[n+]([O-])cc2)cc1 | 0.487 | 1.03% | -75.4 | -17.8% | 3.95%
5 | CCOc1ccc(N2C(=O)c3cc4ccc(OC)cc4n3CC2(C)C(=O)NC2CCCC2)cc1 (stereo not given) | -1.96 | 1.66% | -3.83 | -7.12% | -7.9%
6 | CC(=O)N1CCN(Cc2nnc(C(=O)N3CCC[C@@H]3c3cccc(F)c3)n2-c2ccccc2)CC1 | -4.49 | -3.87% | -2.41 | -10% | -0.931%
7 | COc1ccc2cc3n(c2c1)CC(C)(C(=O)NC1CCCC1)N(c1ccc(C)c(C)c1)C3=O (stereo not given) | 3.62 | 0% | 6.35 | 6.07% | 1.7%
8 | Cc1nc(NC(=O)N2CCC[C@H]2C(N)=O)sc1-c1ccnc(C(C)(C)C(F)(F)F)c1 | -17.1 | -7.22% and -5.27% | -13.4 | -20.7% and -19.4% | -11.5% and -14.8%
9 | COc1ccc(O)cc1CN1CCC(Cc2ccc(C(=O)O)cc2)C1 (stereo not given) | -7.64 | -10.2% | -21.9 | -11% | -26.3%
10 | COc1ccc(C(=O)C2CCN(CC(=O)N(Cc3nc4c(c(=O)[nH]3)COCC4)CC3CC3)CC2)cc1 | -3.58 | -12.2% | 7.73 | -19.9% | -2.42%
11 | CC1(C(=O)NC2CCCCCC2)Cn2c(cc3sccc32)C(=O)N1CCCN1CCCCC1 (stereo not given) | 2.21 | 0% | -6.07 | -1.83% | 2.97%
12 | CC(=O)O[C@@H]1C=C2[C@H](CC[C@@]3(C)[C@@]2(O)CC[C@H]2Cc4c([nH]c5ccccc45)[C@@]23C)O[C@@H]1C(C)(C)O | -1.98 | 6.59% | 8.97 | -6.27% | 4.67%
13 | CCS(=O)(=O)N[C@@H]1CN(Cc2ccccc2)C[C@H]1CN(C)C | -1.6 | -2.29% | 0.461 | -3.25% | 1.64%
14 | CCCn1c(=O)c2cc(Cl)ccc2n2c(SCC(=O)Nc3ccccc3F)nnc12 | -8.2 | 0.948% | 11.8 | 5.58% | 5.29%
15 | COc1ccc(CN2C(=O)c3ccc(-c4ccccc4)n3CC2(C)C(=O)NC2CCC(C)CC2)cc1 (stereo not given) | 3.34 | 3.63% | -0.887 | -5.76% | -0.762%
